# Over roughly 33,000 sequences, “E-score (-0.5 to 0.5)” has its median near -0.054; the highest 2% begin near 0.35. Some of the results follow.
# Target: T1, Stb5 (UniProt P38699)
# T1 sequence: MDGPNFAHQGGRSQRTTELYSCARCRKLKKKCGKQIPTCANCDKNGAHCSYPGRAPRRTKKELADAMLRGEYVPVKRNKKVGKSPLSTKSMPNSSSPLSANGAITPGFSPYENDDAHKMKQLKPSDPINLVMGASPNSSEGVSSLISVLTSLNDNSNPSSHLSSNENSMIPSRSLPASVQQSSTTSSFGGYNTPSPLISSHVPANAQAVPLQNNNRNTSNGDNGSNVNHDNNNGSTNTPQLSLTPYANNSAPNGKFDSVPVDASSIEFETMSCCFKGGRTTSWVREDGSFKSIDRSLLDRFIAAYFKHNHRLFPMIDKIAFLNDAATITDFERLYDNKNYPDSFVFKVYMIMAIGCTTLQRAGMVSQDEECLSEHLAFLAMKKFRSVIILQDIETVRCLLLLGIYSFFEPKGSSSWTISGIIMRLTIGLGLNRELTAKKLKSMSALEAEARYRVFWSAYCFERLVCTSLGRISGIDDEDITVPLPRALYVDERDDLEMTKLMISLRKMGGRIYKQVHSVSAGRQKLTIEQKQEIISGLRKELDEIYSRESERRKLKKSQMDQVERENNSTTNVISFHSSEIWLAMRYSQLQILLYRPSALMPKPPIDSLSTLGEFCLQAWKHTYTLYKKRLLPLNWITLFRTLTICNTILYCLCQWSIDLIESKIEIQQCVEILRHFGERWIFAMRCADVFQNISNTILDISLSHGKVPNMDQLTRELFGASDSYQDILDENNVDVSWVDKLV
# Experiment: PBM E-score (8-mer binding enrichment) (E-score (-0.5 to 0.5)); higher = stronger / more preferred TF binding; most listed sequences are background and not binding sites
# Conditions: protein concentration: 200 nM; construct: GST-full length
# Procedure: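 Universal 'all 10-mer' protein binding microarrays (Agilent AMADID 015681) probed with GST-tagged S. cerevisiae TFs (full-length or DBD) made by in vitro transcription/translation (PURExpress), about 100-200 nM. Bound TF was detected with fluorescent anti-GST. Each ungapped 8-mer (which stands for itself and its reverse complement) is scored by the PBM enrichment score (E-score), a modified Wilcoxon-Mann-Whitney statistic from -0.5 to +0.5, computed with the Universal PBM Analysis Suite. Scale: above 0.35 generally sequence-specific binding.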
row,Sequence,PBM E-score
1,CAACGCTG,-0.0321
2,TGCCTAAA,-0.205
3,GGGGCAAA,0.231
4,GCCGAAGA,-0.016
5,GCCTAGCA,-0.233
6,ACTGCAAC,-0.284
7,GACATGTA,0.127
8,AAATGCCT,-0.111
9,CATCTAAA,0.00115
10,AATATCCT,-0.00071
11,GTCCATAA,-0.268
12,ATCCGGTC,0.147
13,CCGGTCAG,0.179
14,GCTAGACC,-0.0659
15,ATGCAGGA,-0.322
16,CATAGAAA,-0.0877
17,GTTACGTA,-0.106
18,CAGGCATG,-0.111
19,AACGATGT,-0.186
20,AGCGATCC,-0.0329
21,GCTCTGGA,-0.00109
22,AGCTCCCT,-0.295
23,CAGCGACG,0.0833
24,GCGGGATA,0.237
25,AGGAGACG,-0.0596

row,Sequence,PBM E-score
1,CGCAAGAC,-0.145
2,GCCATATA,0.0897
3,ATACATAA,-0.0939
4,CCACACAG,-0.154
5,GGTAAATA,0.219
6,CTTAAGTA,0.0202
7,CCAATTCA,-0.261
8,AGTTACCA,-0.0163
9,CATGTGCA,-0.0466
10,AGCATGGC,-0.178
11,ACGGAGGG,0.0922
12,CCTGTACA,-0.0473
13,TCCTCCGA,0.157
14,ATATCAGA,0.0971
15,GTAGATAA,-0.0465
16,TCGCCGAA,0.178
17,CGTGTTTC,-0.0337
18,TAAGTCCA,0.207
19,ACACAAGT,-0.0563
20,GACGCCCC,0.0392
21,CCAGATGC,-0.143
22,ATTCTCTA,-0.189
23,CCAAAGAC,-0.0393
24,ATCGCCAG,-0.0866
25,ATAACCAG,-0.171

row,Sequence,PBM E-score
1,AATGAGAT,-0.211
2,AAGCGTAG,-0.187
3,AGAGAACT,0.0463
4,ACAGCGTG,-0.0948
5,ACTTGGTG,-0.217
6,CCGGTGTC,0.408
7,GACTTCAA,-0.101
8,CAAGTCGA,-0.282
9,AGCCCGAA,0.247
10,CGCACGAA,-0.0424
11,AAGAGCAG,-0.119
12,GATCGTCA,-0.133
13,GGTTTATA,0.255
14,ACTCGGAT,0.0317
15,TCGCTCCA,-0.126
16,GCACAACA,0.00017
17,AAGCTATG,-0.15
18,GGTCGCTA,0.143
19,CCCCGCGG,0.349
20,AGGACGCA,-0.15
21,ACCACTGC,-0.242
22,ATCTACGA,-0.116
23,AAGTTATG,-0.145
24,ACGTGAGT,-0.224
25,GAAGTATC,-0.0587

row,Sequence,PBM E-score
1,ACTGGGAA,-0.168
2,CAACCAGG,-0.0851
3,CCGGTAGA,0.18
4,AATCGCTC,-0.148
5,AGAGCACA,-0.391
6,TACGACCA,-0.192
7,ACCTATAT,0.00991
8,AGCTCCAG,-0.0175
9,CATTTTAA,0.0061
10,CCGCGATA,0.248
11,GCCGGTTA,0.168
12,GCACGAGA,0.0318
13,CACGTGAC,-0.00531
14,CAATTAGA,-0.275
15,CATCATGG,-0.28
16,GCTTTTGA,0.0244
17,CTCTTCAC,-0.151
18,CCATCGGC,0.191
19,AATAATCA,-0.0238
20,AAGAGGGC,-0.216
21,ACTGTCCC,-0.0687
22,TAGTCGCA,-0.0366
23,CGAATGCG,0.0485
24,CTCAGCCA,-0.113
25,CACACCCG,0.0895

row,Sequence,PBM E-score
1,GCCAAAAC,-0.107
2,TAATAAAA,0.0664
3,CTGATTTC,-0.0794
4,CAGGGCCA,-0.205
5,AACGCTAT,0.0235
6,ACGATCCT,-0.231
7,CGTCCGCC,0.338
8,GATGCGGA,0.236
9,GTCTCTCA,-0.0305
10,ATAATACC,0.368
11,CCTGGAAC,-0.246
12,CCAGATCA,-0.134
13,GGGTGCAC,-0.073
14,AGGTCAAC,-0.0325
15,ATCGTCGA,-0.0831
16,GCTAGAAC,-0.00053
17,CCTGGCCA,-0.309
18,AAGGATGG,-0.0926
19,GGGCTGCA,-0.251
20,ATCGACCC,0.208
21,GGCTGTAC,0.114
22,GGTAATGA,0.00865
23,CAAATTAG,-0.123
24,AAATGTTA,-0.111
25,ACTGGGCG,0.0751

row,Sequence,PBM E-score
1,ACGGTGCA,0.127
2,CTCGGGAC,0.203
3,TACTGTGA,-0.121
4,GGGACACC,0.202
5,ACGTTGTA,-0.0486
6,CAAGTGCC,0.147
7,TACAAAGA,-0.0906
8,CCGGACCG,0.308
9,ACCGATAG,0.167
10,AGCAATCC,-0.0149
11,CCGGCGGA,0.385
12,CATCAGAG,-0.119
13,GCTTGAAC,0.0794
14,CAATATTC,-0.139
15,CTCATTTA,-0.0347
16,ATGCGGGG,0.27
17,CCAGGAAC,-0.0643
18,AGGTCCAA,-0.167
19,CAGGATAA,-0.149
20,AACGGATT,0.212
21,GCAATGGC,0.0959
22,TCAAGGCA,-0.301
23,AGCCAGAA,-0.157
24,CCTCGGAG,0.149
25,AACTGAAG,-0.177

row,Sequence,PBM E-score
1,AGACAGTC,-0.0576
2,CACTCTCC,-0.127
3,CCTTAATA,0.03
4,CCCCCCCA,-0.263
5,ACTGGTGA,-0.148
6,GATGCATA,-0.237
7,GGTACAGA,-0.0467
8,CAAGATAG,-0.113
9,CATCCTGC,-0.226
10,GCGATTAC,0.035
11,CCACTCAC,0.0111
12,GACCGCGA,0.31
13,ATTTTTGC,-0.102
14,GCGTGAGA,-0.198
15,AACCTTTC,-0.118
16,ATTGTCGG,0.282
17,CGGAAAAG,0.0372
18,AAGAGAGT,-0.0713
19,AACCAGCA,-0.238
20,CCACAACC,-0.0786
21,CTAGAGCC,-0.102
22,CCCGACAC,0.34
23,ATCCCATA,0.0102
24,CAAGTTGG,-0.0545
25,CATGGTCC,-0.108

row,Sequence,PBM E-score
1,AGTCACAA,-0.296
2,ATACTGCG,-0.067
3,GCAAGCCC,0.117
4,ATAGCAAA,-0.229
5,CATGCGGC,0.0818
6,GTATGAGA,-0.0179
7,ATGAGGAA,-0.0881
8,AAGCGCGG,0.194
9,CCAAGCGA,-0.153
10,AGTGGGTA,0.00605
11,GTTGGGGA,-0.0548
12,CACATGGG,-0.303
13,AGCATCCC,-0.162
14,AGACCGAT,0.272
15,CACGCAGA,-0.257
16,ACTACAAC,0.0671
17,AAAAACGA,-0.246
18,TATGGGAA,-0.21
19,TCTCCGCA,0.216
20,CAGGTACC,0.0888
21,GAAGCGTC,-0.317
22,CCTCCTCG,-0.23
23,GAACGGGC,0.208
24,AGTCTGCG,-0.124
25,GGTATCAA,0.222

row,Sequence,PBM E-score
1,AGCACGAG,-0.0272
2,AGGGATCC,0.0215
3,ATGTCGCG,-0.0197
4,CGAGAACG,0.123
5,GCTGACCA,-0.169
6,GCGAGACC,-0.175
7,ACTTGTTC,-0.0737
8,AATGAATT,0.0381
9,GAAGAACC,0.0642
10,CCTCCCGC,-0.0684
11,ACAGGACC,0.075
12,CTGCTGCC,-0.0349
13,GGTAGACA,0.0136
14,ATCTCTTA,0.0184
15,ATGTGCAC,-0.149
16,AGAGTCCC,0.0723
17,AAGCAGCT,-0.132
18,ACGAACGG,0.294
19,AATAGAGA,-0.0405
